Experimental data: PubChem BioAssay AID493208 (National Center for Advancing Translational Sciences (NCATS), 2011)
Hit rate of the full screen: of about 44,000 compounds, about 340 (0.77%) were called active. Roughly 5% stayed inconclusive and do not appear here. Calls come from the whole dose curve; as a rule, active = well fitted inhibition curve with a large enough effect; inconclusive = small, poorly fitted or top-dose-only effect; inactive = flat fitted curve, though single readings scatter. This is one part of the list.

Assay: Acumen qHTS Assay for Inhibitors of the mTORC1 Signaling Pathway in MEF (Tsc2-/-, p53-/-) Cells: Sytravon;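 note: plate controls were DMSO for no effect and rapamycin for full effect; nearly all actives have a fitted effect of over 50% in size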
Conditions: phospho-rpS6 immunofluorescence/PI, 24 h; series mostly up to 38.3 µM; activity change, negative = inhibition: at the top concentration
Method in brief: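 Tsc2-/-, p53-/- MEFs (empty-vector stable line) in DMEM + 10% FBS were treated with compounds 24 h at 37 degree Celsius, fixed, and immunostained for phospho-rpS6 (Alexa-488) with propidium iodide counterstain. Laser-scanning cytometry gave % positive cells, normalized against 7.5 nM rapamycin and DMSO.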

Row | Structure (SMILES) | activity change, negative = inhibition
1 | CCCN(C(=O)Cn1nc(Cc2cccnc2)c2ccccc2c1=O)c1ccc(C(C)C)cc1 | inactive: -10.1%
2 | CCOc1ccc(CCNC(c2nnc(-c3ccccc3)o2)c2ccccc2Cl)cc1OCC (stereo unspecified) | inactive: 1.1%
3 | COc1ccc(CCNC(=O)c2cc(-c3ccc(C)c(C)c3)nc3ccccc23)cc1OC | inactive: -12.2%
4 | CCCn1c2ccc(C)cc2c2nnc(SCCN3CCCCC3)nc21 | inactive: -26.2%
5 | Cc1ccc(S(=O)(=O)Nc2nc3n(n2)C(c2ccc(Cl)cc2)C=C(c2ccccc2)N3)cc1 (stereo unspecified) | inactive: 1.86%
6 | O=C(CN1C(=O)CC(c2ccco2)Sc2ccccc21)Nc1ccc(OC(F)(F)F)cc1 (stereo unspecified) | inactive: 3.21%
7 | COc1ccc(C(=O)NCC(c2cccs2)S(=O)(=O)c2cccs2)cc1 (stereo unspecified) | inactive: -7.88%
8 | Cc1ccc(NC(=O)[C@H](Cc2ccccc2)N2Cc3ccccc3C2=O)cc1F | inactive: -0.0506%
9 | CCOc1ccc(C2CC(=O)c3c([nH]c(C(=O)OC4CCCCCC4)c3C)C2)cc1 (stereo unspecified) | inactive: -14.7%
10 | CC1=C(C(=O)OC2CCCCCC2)C(c2c(Cl)cccc2Cl)CC(=O)N1 (stereo unspecified) | inactive: -1.97%
11 | Cc1nn(C)c2c1c(C(F)(F)F)cc(=O)n2C(C)C(=O)NCc1ccccc1 (stereo unspecified) | inactive: -14.7%
12 | CCOCCc1nn2c(=O)cc(COC(=O)c3ccc4c(c3)OCO4)nc2s1 | inactive: -2.92%
13 | COc1ccc(-c2nc(CS(=O)CC(=O)NCc3ccccc3Cl)c(C)o2)cc1OC (stereo unspecified) | inactive: -12%
14 | Cn1c(C(=O)Nc2cccc(Cl)c2)cc2c(=O)n(C)c3ccccc3c21 | inactive: -1.96%
15 | O=S(=O)(c1ccc(Br)cc1)N1CCn2cccc2C1c1ccc(Br)cc1 (stereo unspecified) | inactive: -12.2%
16 | Cc1ccc(CNc2nc3nc(C)c(Cl)c(C)n3n2)cc1 | inactive: -6.38%
17 | Cc1ccc(-c2cn3c(n2)sc2cc(C(=O)NC4CCCCCC4)ccc23)c(C)c1 | inactive: 9.34%
18 | Cc1ccc(Cl)cc1N1CCN(C(=O)C2CCN(S(=O)(=O)c3c(C)noc3/C=C/c3ccccc3F)CC2)CC1 | inactive: -15.4%
19 | Cc1oc2c(c(C)cc3oc(=O)c(CC(=O)NCCc4ccc(Cl)cc4)c(C)c32)c1C | inactive: 1.86%
20 | Cc1cccc(NC(c2nnc(-c3ccccc3)o2)c2ccc(F)cc2Cl)c1C (stereo unspecified) | inactive: -0.856%
21 | O=C(NCc1ccccc1)c1ccc2c(c1)sc1nc(-c3ccc(F)cc3)cn12 | inactive: -3.83%

Row | Structure (SMILES) | activity change, negative = inhibition
22 | CC(C)c1nn2c(=O)cc(COC(=O)COc3ccccc3F)nc2s1 | inactive: -12.9%
23 | CCc1ccccc1NC(=O)CSc1nc2ccccc2nc1Cc1cccc(OC)c1 | inactive: -16.4%
24 | COc1cccc(-c2cn3c(n2)sc2cc(C(=O)NCCc4ccccc4)ccc23)c1 | inactive: 5.76%
25 | Cc1ccc(C)c(N2CCN(CCCNC(=O)c3ccc4nc(C(C)C)oc4c3)CC2)c1 | inactive: -6.4%
26 | Cc1cc(-c2ccc(C)c(S(=O)(=O)N(C(C)C)C3CCCCC3)c2)on1 | inactive: -4.73%
27 | O=C(O)CCSc1nnc(-c2ccc(Cl)cc2Cl)o1 | inactive: 2.16%
28 | CC1(C)O[C@H]2[C@@H](O1)[C@@H](C(=O)Nc1cc(F)ccc1F)O[C@@H]1OC(C)(C)O[C@@H]12 | inactive: -9.38%
29 | Cc1cccc(-c2cc(C(=O)O)c3c(-c4ccc(F)cc4)[nH]nc3n2)c1 | inactive: -10.2%
30 | Cc1ccc2nc(N(Cc3cccnc3)C(=O)CCc3ccccc3)sc2c1 | inactive: -5.43%
31 | COc1ccc(-c2nc3n(n2)C(c2cccc(C)c2)C(C(N)=O)=C(C)N3)cc1OC (stereo unspecified) | inactive: -17.4%
32 | CC(=O)c1ccc(NC(=O)c2nn(C)c3c2CS(=O)(=O)c2ccccc2-3)cc1 | inactive: 3.9%
33 | Cc1cccc(NC(=O)c2ccc(F)c(S(=O)(=O)N3CCN(c4ccc(F)cc4)CC3)c2)c1 | inactive: 13.2%
34 | CCOC(=O)C1=C(CN2CCCCC2)NC(=O)NC1c1ccc(OC)cc1 (stereo unspecified) | inactive: -0.0611%
35 | Cc1ccc(-c2cn3c(n2)sc2cc(C(=O)NC4CCCCC4)ccc23)cc1 | inactive: -9.74%
36 | CCOc1ccccc1NC(=O)c1cn(C2CCCCC2)c(=O)c2c1c1ccccc1n2C | inactive: -2.28%
37 | COc1ccc(CCNC(=O)CCn2c(=O)c3cccn3c3ccc(F)cc32)cc1OC | inactive: -23.2%
38 | NS(=O)(=O)c1ccc(CCNC(=O)CCn2c(=O)c3cccn3c3cccnc32)cc1 | inactive: -3.24%
39 | Cc1cc(F)ccc1NC(=O)CN1C(=O)CCc2cc(S(=O)(=O)N3CCOCC3)ccc21 | inactive: 2.61%
40 | Cc1ccc(-n2ncc(C(=O)N(C)Cc3ccccc3)c2-n2cccc2)cc1 | inactive: 0.942%
41 | Cc1cc(Br)ccc1NC(=O)C(NS(=O)(=O)c1cccs1)c1ccccc1 (stereo unspecified) | inactive: -3.93%
42 | COc1ccc(Cl)cc1NC(=O)c1cc2nc(-c3ccc(C)cc3)cc(C(F)(F)F)n2n1 | inactive: -16.5%

Row | Structure (SMILES) | activity change, negative = inhibition
43 | CC(CNC(=O)c1cc2ccccn2n1)c1ccccc1 (stereo unspecified) | inactive: 7.26%
44 | CSc1nc(C)cc(Nc2cccc(C(=O)O)c2)n1 | inactive: -0.775%
45 | CCOC(=O)C(C)Nc1ncnc2onc(C)c12 (stereo unspecified) | inactive: -7.31%
46 | COc1cc(NC(=O)CCCN2C(=O)CCn3nc(-c4cn(C)c5ccccc45)cc32)cc(OC)c1 | inactive: 0.666%
47 | O=C(c1cnc(N2CCCCC2)c2ccccc12)N1CCN(c2ccc(F)cc2)CC1 | inactive: 0.4%
48 | Fc1ccc(Nc2nc(-c3ccc(F)cc3)c3c(n2)-c2ccccc2OC3)cc1 | inactive: -0.221%
49 | Cc1c(NC(=O)c2ccc(-c3ccc(F)cc3)o2)cccc1-c1nc2ncccc2o1 | inactive: -7.46%
50 | COc1cccc(C(=O)Nc2ccc3nc(SCC(=O)N4CCc5ccccc54)sc3c2)c1 | inactive: 1.41%
51 | Cc1sc2c(c1C)c(=O)n(-c1ccc(Cl)cc1)c(=O)n2CC(=O)c1ccccc1 | inactive: 7.16%
52 | COc1cccc(CNC(=O)c2ccc3c(c2)sc2nc(-c4ccccc4)cn23)c1OC | inactive: 6.51%
53 | O=c1[nH]c2ccc(S(=O)(=O)Nc3cc(Cl)ccc3O)cc2o1 | inactive: 2.66%
54 | CCOc1ccccc1CNC(=O)c1cc2oc3ccccc3c2n1CC | inactive: -0.647%
55 | Cc1ccc(-c2nc3scc(CCNS(=O)(=O)c4c(C)noc4C)n3n2)cc1 | inactive: -0.525%
56 | Cc1cc(C)cc(NC(=O)c2cc3c(=O)n(Cc4ccco4)ccc3nc2C)c1 | inactive: -5.25%
57 | Cc1nc2c(-c3ccc(F)cc3)c(C)nn2c(C)c1CCC(=O)NCc1cccc(Cl)c1 | inactive: -6.86%
58 | CCC(=O)N1CCc2cc(Br)cc(S(=O)(=O)N3CCN(c4cccc(Cl)c4)CC3)c21 | inactive: 2.26%
59 | O=C(OCC1CCCO1)c1ccc2c(c1)N(Cc1cccc(F)c1)C(=O)c1ccccc1S2(=O)=O (stereo unspecified) | inactive: 3.15%
60 | CC1CCc2nc(NC(=O)Cc3ccc(Cl)cc3)sc2C1 (stereo unspecified) | inactive: -3.31%
61 | CCOc1cccc(C2c3[nH]c4ccccc4c3CCN2C(=O)Cc2cccc(OCC)c2OCC)c1 (stereo unspecified) | inactive: -1.91%
